We go through 51 compounds from the supplement of paper PMC6135742.

Counter-ions that a name gives are not always drawn. ± gives the standard deviation of the averaged measurements. In all, about 2,600 compounds were measured (“MBP+ mature oligodendrocyte number relative to DMSO vehicle control”: median about -0.34, highest 2% from about 13 on). The list shows a part of the results. Bounds are passed on as bounds.
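Further: 10 µM single dose with 3-day oligodendrocyte differentiation.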

For this assay, the system named is jimpy (Plp1 jimpy) mouse iPSC-derived oligodendrocyte progenitor cells. As to the kind of experiment: MBP+ mature oligodendrocyte number relative to DMSO vehicle control (SDs above negative control mean); higher = more surviving jimpy oligodendrocytes (rescue). Particulars: 10 µM; 3 days.
As to `CCC(C)n1ncn(-c2ccc(N3CCN(c4ccc(OCC5COC(Cn6cncn6)(c6ccc(Cl)cc6Cl)O5)cc4)CC3)cc2)c1=O` (stereo unspecified) [Itraconazole], the “MBP+ mature oligodendrocyte number” value is < -3.97.
Regarding `C[C@H]1[C@H](OC(=O)CCC(=O)O)O[C@@H]2O[C@@]3(C)CC[C@H]4[C@H](C)CC[C@@H]1[C@@]24OO3` [Artesunate], the “MBP+ mature oligodendrocyte number” value was < -3.97.
Under `CC(N)C(=O)OC(C)(C)Cc1ccc(Cl)cc1` (stereo unspecified) [Alaproclate hydrochloride] stands 0.313; under `CC(C)NCC(O)c1cc(O)cc(O)c1` (stereo unspecified) [Metaproterenol hemisulfate], -0.676; under `O=[N+]([O-])c1cc2nc(O)c(O)nc2cc1[N+](=O)[O-]`, 2.02.
Take `CC(=O)/C(C)=N/O` [2,3-Butanedione monoxime]: the “MBP+ mature oligodendrocyte number” value was -0.865.
Under `CCCCCCCCCCCCCCSCC(=O)O` [Tetradecylthioacetic acid] stands 0.00298; under `O=C(O)CN(CCN(CC(=O)O)CC(=O)O)CCN(CC(=O)O)CC(=O)O` [Diethylenetriaminepentaacetic acid], -1.59.
For `CC(C)(CO)Cc1cc(C(C)(C)C)c(O)c(C(C)(C)C)c1`, the “MBP+ mature oligodendrocyte number” value was 0.431.
Under `C#CCN(C)CCCOc1ccc(Cl)cc1Cl` [Clorgyline hydrochloride] stands 2.81; under `CCc1cnn2c(NCc3ccc[n+]([O-])c3)cc(N3CCCC[C@H]3CCO)nc12`, < -6.01; under `C[C@@]1(c2cc(-c3cncnc3)c(F)cc2F)CCSC(N)=N1`, -3.62.
Under `COc1ccccc1N1CCN(CCCNc2cc(=O)n(C)c(=O)n2C)CC1` [Urapidil hydrochloride] stands 1.36.
Under `COc1ccccc1N1CCN(CCCNc2cc(=O)n(C)c(=O)n2C)CC1` [Urapidil HCl] stands 2.68; under `O=C(Nc1cccc(Nc2ncc(Br)c(NCCc3cnc[nH]3)n2)c1)N1CCCC1`, -6.61.
Regarding `COc1nc(N)nc2c1ncn2[C@@H]1O[C@H](CO)[C@@H](O)[C@@H]1O` [Nelarabine], the “MBP+ mature oligodendrocyte number” value is -0.851.
As to `O=C(CCCN1CCC(O)(c2cccc(C(F)(F)F)c2)CC1)c1ccc(F)cc1` [Trifluperidol hydrochloride], the “MBP+ mature oligodendrocyte number” value worked out at 0.681.
For `O=C(/C=C/C=C/c1ccc2c(c1)OCO2)N1CCCCC1` [Piperine], the “MBP+ mature oligodendrocyte number” value was 1.07.
Under `O=c1c2ccccc2nc2n1CCc1c-2[nH]c2ccccc12` [Rutaecarpine] stands -1.73 ± 0.48.
For `CN(C)c1ccccc1CN1CCCN(Cc2ccccc2N(C)C)C1c1ccncc1`, the “MBP+ mature oligodendrocyte number” value was < -3.85.
As to `CCC(=O)OCC(=O)[C@@]1(OC(=O)CC)[C@@H](C)C[C@H]2[C@@H]3CCC4=CC(=O)C=C[C@]4(C)[C@@]3(Cl)[C@@H](O)C[C@@]21C` [Beclomethasone dipropionate], the “MBP+ mature oligodendrocyte number” value was determined as 7.8.
Under `COCC(=O)O[C@]1(CCN(C)CCCc2nc3ccccc3[nH]2)CCc2cc(F)ccc2[C@@H]1C(C)C` [Mibefradil dihydrochloride] stands < -3.97; under `C[C@H](CSC(=O)c1ccccc1)C(=O)N1C[C@@H](Sc2ccccc2)C[C@H]1C(=O)O` [Zofenopril calcium], -1.43; under `CN1CCOC(c2ccccc2)c2ccccc2C1` (stereo unspecified) [Nefopam HCl], 0.913.
Under `N=C(N)NCCCCN` [Agmatine sulfate] stands -1.14; under `CN1CCC(=C2c3ccccc3CCc3sccc32)CC1` [Pizotifen Malate], -6.09; under `COc1ncc(-c2ccc3nccc(-c4ccnnc4)c3c2)cc1NS(=O)(=O)c1ccc(F)cc1F`, < -6.01.
As for `CCN(CC)CCOc1ccc(C(=C(Cl)c2ccccc2)c2ccccc2)cc1` [Clomifene citrate], the “MBP+ mature oligodendrocyte number” value was < -4.81.
Under `COc1ccc(NC(=O)c2ccc(-c3ccc(-c4noc(C)n4)cc3C)cc2)cc1N1CCN(C)CC1` stands < -3.97; under `CCCCNc1ccc(C(=O)OCCN(C)C)cc1` [Tetracaine HCl], 1.01; under `CCCCNc1ccc(C(=O)OCCN(C)C)cc1` [Tetracaine hydrochloride], 0.753.
Under `COc1ccc2c(c1)CC[C@@H]1[C@@H]2CC[C@]2(C)[C@@H](NCCCCCCN3C(=O)CCC3=O)CC[C@@H]12` stands 0.774; under `CCCCCOC(=O)Nc1nc(=O)n([C@@H]2O[C@H](C)[C@@H](O)[C@H]2O)cc1F` [Capecitabine], -0.15 ± 1.4; under `COc1ccccc1N1CCN(CCCCNC(=O)c2ccc3ccccc3c2)CC1`, -1.65.
Under `Cc1cc(-c2ncc(CC(=O)Nc3ccc(-c4cnccn4)cn3)cc2C)ccn1` stands 13.8.
For `Cc1cnc(C(=O)NCCc2ccc(S(=O)(=O)NC(=O)NC3CCCCC3)cc2)cn1` [Glipizide], the “MBP+ mature oligodendrocyte number” value was 0.00129 ± 0.99.
Under `CC(C)NC[C@H](O)COc1cccc2[nH]ccc12` [S(-)-Pindolol] stands -0.805; under `CN1CCC(NC(=O)c2cc(-c3c(O)cc(O)cc3Oc3ccc([N+](=O)[O-])cc3)on2)CC1`, -6.27.
For `O=C1[C@H](CC[C@H](O)c2ccc(F)cc2)[C@@H](c2ccc(O)cc2)N1c1ccc(F)cc1` [Ezetimibe], the “MBP+ mature oligodendrocyte number” value was 2.95.
Under `COC(=O)C1=C(C)NC(C)=C(C(=O)OCCN(C)Cc2ccccc2)C1c1cccc([N+](=O)[O-])c1` (stereo unspecified) [Nicardipine HCl] stands 4.12; under `COC(=O)C1=C(C)NC(C)=C(C(=O)OCCN(C)Cc2ccccc2)C1c1cccc([N+](=O)[O-])c1` (stereo unspecified) [Nicardipine hydrochloride], -0.519.
Under `Cc1nc(C#Cc2ccnc(Cl)c2)c(C)n1-c1ccc(OC(F)(F)F)cc1` stands -4.58; under `OC[C@H]1O[C@@H](c2ccc(Cl)c(Cc3ccc(O[C@H]4CCOC4)cc3)c2)[C@H](O)[C@@H](O)[C@@H]1O`, 3.51.
Turning to `Cc1cc(-c2ccc(CC(=O)Nc3ccc(-c4cccnc4)cc3)cc2)ccn1`, the “MBP+ mature oligodendrocyte number” value came out at 23.2.
As for `COCCOc1ccc2c(c1)ncn2-c1ccc2cccc(N3CCC(N)CC3)c2n1`, the “MBP+ mature oligodendrocyte number” value is < -5.15.
Under `Cc1cc(Nc2cc(N3CCN(C)CC3)nc(/C=C/c3ccccc3)n2)n[nH]1` stands < -6.7.
Under `COC(=O)C1=C(C)NC(C)=C(C(=O)OCC(C)C)C1c1ccccc1[N+](=O)[O-]` (stereo unspecified) [Nisoldipine] stands < -5.15; under `Oc1cc(O)c(Cl)cn1` [Gimeracil], 0.883.
Under `COc1ccc2cc(OCC3(C(=O)O)CN(C(=O)c4ccc(F)cc4)C3)ccc2c1` stands -0.0098.
For the compound `CC1(C)CNc2cc(NC(=O)c3cccnc3NCc3ccncc3)ccc21` [Motesanib Diphosphate (AMG-706)], the “MBP+ mature oligodendrocyte number” value was -1.9.
Under `O=C1CCc2ccc(OCCCCN3CCN(c4cccc(Cl)c4Cl)CC3)cc2N1` [Aripiprazole] stands 5.11.
